Reference: PubChem BioAssay AID1030 (National Center for Advancing Translational Sciences (NCATS), 2008)
The whole screen tested about 220,000 compounds, of which about 16,000 (7.3%) were called active. The inconclusive results got no clear call from the source; some entries with a clear call stand among them for comparison. Calls come from the whole dose curve; as a rule, active = well fitted inhibition curve with a large enough effect (not every such curve was filed as active); inconclusive = small, poorly fitted or top-dose-only effect, or another doubt; inactive = no such curve, though single readings can be large or run the other way. No potency is given beside an inconclusive call; the fits are too rough.

target: Aldehyde dehydrogenase 1A1 (Homo sapiens) (UniProt P00352); test: qHTS Assay for Inhibitors of Aldehyde Dehydrogenase 1 (ALDH1A1); conditions: Purified ALDH1A1, NADH fluorescence, propionaldehyde substrate; series mostly up to 75.3 µM;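 for activity, negative = inhibition: plate controls were no enzyme wells and a reference inhibitor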
Potency is the fitted concentration of half-maximal effect; tags give direction and shape of the fitted curve.

Chain of UniProt P00352 (P00352 whole entry, looked up): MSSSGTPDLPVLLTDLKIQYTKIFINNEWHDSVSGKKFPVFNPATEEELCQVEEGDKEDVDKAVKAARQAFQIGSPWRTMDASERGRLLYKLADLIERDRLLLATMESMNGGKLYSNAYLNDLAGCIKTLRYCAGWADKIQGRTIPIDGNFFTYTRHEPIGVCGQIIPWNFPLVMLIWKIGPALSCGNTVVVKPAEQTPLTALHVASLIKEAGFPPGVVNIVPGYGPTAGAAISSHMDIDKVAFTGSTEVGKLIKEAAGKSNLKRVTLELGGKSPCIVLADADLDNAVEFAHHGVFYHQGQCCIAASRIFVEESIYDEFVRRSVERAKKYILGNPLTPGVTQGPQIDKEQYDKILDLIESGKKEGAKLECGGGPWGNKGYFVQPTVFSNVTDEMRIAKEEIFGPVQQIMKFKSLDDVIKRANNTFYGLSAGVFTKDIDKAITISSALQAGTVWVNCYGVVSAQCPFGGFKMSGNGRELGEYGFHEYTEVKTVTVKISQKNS

Row | SMILES | Potency | activity, negative = inhibition
1 | COc1ccc(NC(=O)/C=C/c2ccc(C)o2)cc1S(=O)(=O)N1CCOCC1 | inconclusive [inhibitor, single point] | 
2 | CCOCCCNC(=O)CN1C(=O)/C(=C/c2ccccc2C)Sc2ccccc21 | inconclusive [inhibitor, partial curve] | 
3 | COc1ccc(Cl)cc1-c1csc(N)n1 | inconclusive [inhibitor, single point] | 
4 | Cc1ccc(C)c(Cn2c(O)c(N=NC(=S)Nc3ccccc3F)c3ccccc32)c1 | active: 12.6 µM | 
5 | Cn1c(=O)c2ncn(CC(=O)NC3CCCCCC3)c2n(C)c1=O | inactive | 
6 | O=C(Nc1ccc2c(c1)OCCO2)c1ccccc1F | inactive | 
7 | CC(C)(CC(=O)O)CC(=O)Nc1ccc(Oc2ccc(C(C)(C)C)cc2)nc1 | active: 8.91 µM | 
8 | O=C(NNC(=S)Nc1ccccc1)c1cc(-c2cccnc2)nc2ccccc12 | inconclusive [inhibitor, single point] | 
9 | O=C(CCCn1c(=O)[nH]c2ccsc2c1=O)NCc1cccs1 | inconclusive [inhibitor, partial curve] | 
10 | CCCCC1=CC2=CC(=O)C(C)(OC(=O)CC)C(=O)C2=CN1Cc1ccc2c(c1)OCO2 (configuration not stated) |  | inactive: 14.1% [at 13.5 µM]
11 | COc1ccc(C)cc1S(=O)(=O)Nc1cccc(C)c1 | inactive | 
12 | CCOc1ccc2[nH]c(=O)c(CN(CCOC)C(=O)N3CCOCC3)cc2c1 | inconclusive [inhibitor, single point] | 
13 | O=C(Cn1c(=O)c(=O)n(Cc2ccccc2)c2ccc(Cl)cc21)Nc1cc(F)ccc1F | inconclusive [inhibitor, single point] | 
14 | CCCCNC(=O)CCn1nc(-c2ccccc2)ccc1=O | inactive | 
15 | COc1ccc(CN(C(=O)c2ccc3c(c2)OCCO3)C(C(=O)NC2CCCCC2)c2ccc3ncccc3c2)cc1 (configuration not stated) | inconclusive [inhibitor, partial curve] | 
16 | Cc1ccc(C(C)C)c(Oc2nnnn2-c2ccccc2)c1 | active: 17.8 µM | 
17 | CCC(CC)NC(=O)Cc1ccc(F)cc1 | inactive | 
18 | CC1CN(C2CCN(S(=O)(=O)c3ccc4ccccc4c3)CC2)CC(C)O1 (configuration not stated) | active: 14.1 µM | 
19 | COc1cccc(-c2[nH]nc3c2C(c2ccsc2)C(C#N)=C(N)O3)c1 (configuration not stated) | inactive | 
20 | Cn1ccnc1C(=O)c1ccc(NN)c([N+](=O)[O-])c1 | inconclusive [inhibitor, single point] | 
21 | CC(C)Cn1c(-c2nn(C)cc2Cl)n[nH]c1=S | inactive | 
22 | O=C(CSc1ccccn1)Nc1ccc2ccccc2c1 | inactive | 
23 | CCc1cc(=O)oc2cc(C)cc(OC(=O)c3ccco3)c12 | active: 10 µM | 
24 | COC(=O)c1sccc1NC(=O)c1cccc(OC)c1 | inactive | 
25 | CCOC(=O)Cn1nc(/C=C/c2ccccc2)ccc1=O | inconclusive [inhibitor, single point] | 
26 | N#Cc1nc(-c2ccco2)oc1N1CCN(C(c2ccccc2)c2ccccc2)CC1 | inconclusive [inhibitor, partial curve] | 

Row | SMILES | Potency | activity, negative = inhibition
27 | Cc1ccc(C(=O)/C=C/Nc2cccc([N+](=O)[O-])c2)o1 | inactive | 
28 | COc1ccc(C)cc1Nc1cc(C)nc2ncnn12 | inactive | 
29 | c1ccc(-n2nnnc2SCc2cccc3nsnc23)cc1 | active: 14.1 µM | 
30 | Cc1ccccc1 | inactive | 
31 | Cc1ccc(-n2nc3c(n2)/C(=N/O)CC/C3=N\O)cc1 | inactive | 
32 | Cn1nnnc1SCC(=O)NCc1cc([N+](=O)[O-])ccc1O | inactive | 
33 | O=[N+]([O-])c1ccc(/C=N/Nc2nc(N3CCCC3)nc(N3CCCC3)n2)o1 | inconclusive [inhibitor, full curve] | 
34 | C=C(C)COc1ccc(-c2ncncc2Oc2ccc(OC)cc2)c(O)c1 | active: 20 µM | 
35 | Cc1cc(Cl)c2c(c1)[C@]1(C(=O)N2)[C@@H]2C(=O)N(Cc3ccccc3)C(=O)[C@@H]2[C@@H]2CCCN21 | inconclusive [inhibitor, single point] | 
36 | O=C(CN1CCN(C(=O)c2cccc(F)c2)CC1)Nc1ccccc1F | active: 12.6 µM | 
37 | COC(=O)/C=C/c1cnc2ccccc2c1 | inactive | 
38 | CC(C)(C#CC(O)(c1ccccc1)c1ccccc1)N1CCCC1 | inactive | 
39 | O=C(NCc1ccco1)c1cc2nc(-c3cccs3)cc(C(F)(F)F)n2n1 | inconclusive [inhibitor, partial curve] | 
40 | O=C(CNC(=S)NC(=O)c1ccco1)c1ccccc1 | active: 20 µM | 
41 | CCOC(=O)C1=C(CN2CCOCC2)NC(=O)NC1c1cc(C)ccc1C (configuration not stated) | inconclusive [inhibitor, single point] | 
42 | CC(C)Sc1nc2[nH]ncc2c(=O)[nH]1 | inconclusive [inhibitor, single point] | 
43 | CCCN(CCC)CCCNC(=O)CN1C(=O)CSc2ccc(S(=O)(=O)N3CCOCC3)cc21 | inactive | 
44 | CC(C)C(=O)N1CCC(c2nc(-c3ccc(S(=O)(=O)N4CCN(C)CC4)cc3)no2)CC1 | inconclusive [inhibitor, single point] | 
45 | COCCCn1c(=S)[nH]c2c(sc3ccccc32)c1=O | inconclusive [inhibitor, single point] | 
46 | CC(=O)/C=C/c1ccc(C)o1 | inconclusive [inhibitor, single point] | 
47 | Cc1ccc(OCc2nnnn2-c2ccccc2)cc1 | inactive | 
48 | NC(=S)c1cc2ccc(O)cc2oc1=O | inconclusive [inhibitor, partial curve] | 
49 | CCOC(=O)c1cnc2c(C#N)c(C)nn2c1C | inconclusive [inhibitor, single point] | 
50 | COc1ccc(-c2nc(CSCC(=O)N3CCc4ccccc4C3)c(C)o2)cc1OC | inconclusive [inhibitor, partial curve] | 
51 | O=C(NC(=S)Nc1ccc(CN2CCOCC2)cc1)c1ccco1 | inconclusive [inhibitor, single point] | 
52 | CCCNC(=O)c1oc2ccc3c(c2c1C)C(=O)CC(C)(C)O3 | inconclusive [inhibitor, partial curve] | 
